Data from PubChem BioAssay AID504845 (National Center for Advancing Translational Sciences (NCATS), 2011).
Out of some 390,000 compounds screened, about 150 (0.038%) were called active. This list was built around the results that the source calls inconclusive (neither active nor inactive); the mix of calls is not that of the screen. Calls follow the shape of the dose curve; as a rule, active = well fitted inhibition curve with a large enough effect; inconclusive = small, poorly fitted or top-dose-only effect; inactive = no such curve, though single readings can be large or run the other way. Potencies beside an inconclusive call are fits to weak or partial responses and may not hold up.

The compounds below were run against Regulator of G-protein signaling 4 (Homo sapiens) (UniProt P49798) (assay: Inhibitors of Regulator of G Protein Signaling (RGS) 4: qHTS). Details: Transcreener GDP fluorescence polarization, RGS4-accelerated GTP hydrolysis; series mostly up to 114 µM.
Method in brief: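 MLSMR compounds (23 nl, pin-transferred) preincubated 10 min at room temperature with a 500nM (2x) first reagent, then RGS4 at 900nM (2x) plus Transcreener GDP mix added; fluorescence polarization (620/688 nm) read before and after 90 min at 30 °C.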
Also: nearly all actives have a fitted effect of over 75% in size.
Potency is read from the fitted curve at half-maximal effect; tags tell the direction and shape of the fitted curve.

Sequence of UniProt P49798 (P49798 whole entry, looked up): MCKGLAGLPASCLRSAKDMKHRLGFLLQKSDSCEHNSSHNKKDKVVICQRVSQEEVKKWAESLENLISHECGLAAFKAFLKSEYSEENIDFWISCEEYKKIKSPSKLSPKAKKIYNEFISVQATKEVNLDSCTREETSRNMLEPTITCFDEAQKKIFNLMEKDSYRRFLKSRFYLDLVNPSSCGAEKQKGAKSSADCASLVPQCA

| Structure (SMILES) | Potency |
| --- | --- |
| COc1ccc(C(=O)Oc2ccc(C3NC(=O)c4c(sc5c4CCN(C)C5)N3)cc2OC)cc1 (stereo not given) | inconclusive: 50.1 µM [inhibitor, partial curve, poor fit] |
| CC(=O)Oc1cc2c(C(C)=O)coc2c2ccccc12 | inactive |
| CCn1c(SCc2nc(-c3ccc(Cl)cc3)no2)nnc1-c1ccco1 | inconclusive: 89.1 µM [inhibitor, single point] |
| CS(=O)(=O)N1CCN(c2ccccc2NC(=O)c2ccc([N+](=O)[O-])o2)CC1 | inconclusive: 25.1 µM [inhibitor, full curve, poor fit] |
| CCc1nnc(NC(=O)c2ccc(OC)cc2OC)s1 | inactive |
| CCOC(=O)CN(C(=O)COc1nc(C)cc(C)c1C#N)c1cccc(Cl)c1 | inconclusive: 20 µM [inhibitor, full curve, poor fit] |
| CCOC(=O)C(=CNc1ccc(O)c(C(=O)OC)c1)C(=O)OCC | inactive |
| O=C(Nc1ccccc1)Nc1ccc(O)c2ccccc12 | inconclusive: 70.8 µM [inhibitor, partial curve, poor fit] |
| Cc1ccc2nc(SCC(=O)Nc3ccc4c(c3)OCCO4)[nH]c2c1 | inactive |
| Cc1ccc(C2c3c(-c4ccccc4O)n[nH]c3C(=O)N2Cc2ccncc2)cc1 (stereo not given) | inactive |
| CCC1=NN2C(=N)/C(=C\c3cccn3-c3ccc(Br)cc3)C(=O)N=C2S1 | inconclusive: 50.1 µM [inhibitor, partial curve, poor fit] |
| C=CCn1c(SCC(=O)NCc2ccccc2)nnc1-c1ccccc1O | inactive |
| CCC(C)(C)n1nnnc1C(c1ccc2ncccc2c1)N1CCN(c2ccc(O)cc2)CC1 (stereo not given) | inconclusive: 56.2 µM [inhibitor, partial curve, poor fit] |
| CCc1ccc(-c2cn3nc(C)c(C)nc3n2)cc1 | inactive |
| Cc1ccc2c(=O)cc(C(=O)Nc3c(C(=O)c4ccccc4)oc4ccccc34)oc2c1 | inactive |
| CCOC(=O)COc1cc(O)c2c(=O)cc(-c3ccccc3)oc2c1 | inconclusive: 50.1 µM [inhibitor, partial curve, poor fit] |
| O=C(CSc1nnnn1Cc1ccccc1)Nc1ccc2c(c1)OCO2 | inconclusive: 89.1 µM [inhibitor, single point] |
| O=C(CSc1nc2ncc(Br)cc2[nH]1)c1ccc([N+](=O)[O-])cc1 | inconclusive: 79.4 µM [inhibitor, partial curve, poor fit] |
| O=C(Nc1ccc2oc(-c3ccccc3)nc2c1)c1ccc2c(c1)OCCO2 | inactive |
| O=C(/C=C/c1ccco1)NCC1COc2ccccc2O1 (stereo not given) | inconclusive: 79.4 µM [inhibitor, partial curve, poor fit] |
